Measurements: the supplement of paper PMC7125110
± gives the standard error. Variants at the background level are over-represented here.

B1: glmS ribozyme (parent)
chain: AUAAAAGCGCCAGAACUACAGAAAUGUAGUUGACGAGGAGGAGGUUUAUCGAAUUUUCGGCGGAUGCCUCCAAA

How the values were obtained:
Settings in all cases: with glucosamine-6-phosphate
glucosamine-6-phosphate [1] = variants of: B1; experiment: self-cleavage kobs at 640 uM GlcN6P; higher = faster cleavage; RNA array
Outline: (§1)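 Glucosamine-6-phosphate in HEPES/KCl/Mg(OAc)2 buffer, at 40 μM to 10 mM, was flowed over barcoded ribozyme variants transcribed in situ by E. coli RNA polymerase on sequenced MiSeq chips. Tracking was through a hybridised Cy3 probe at 37 °C. kobs, kcat and KM came from exponential decay fits and weighted Michaelis–Menten fits of normalised per-tile medians.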

glucosamine-6-phosphate [2] = variants of: B1; experiment: self-cleavage kobs at 160 uM GlcN6P; higher = faster cleavage; RNA array
Outline: as §1

glucosamine-6-phosphate [3] = variants of: B1; experiment: self-cleavage kobs at 2500 uM GlcN6P; higher = faster cleavage; RNA array
Outline: as §1

glucosamine-6-phosphate [4] = variants of: B1; experiment: self-cleavage kobs at 10000 uM GlcN6P; higher = faster cleavage; RNA array
Outline: as §1

| Variant | self-cleavage kobs at 640 uM GlcN6P (glucosamine-6-phosphate [1]) [s⁻¹] | self-cleavage kobs at 160 uM GlcN6P (glucosamine-6-phosphate [2]) [s⁻¹] | self-cleavage kobs at 2500 uM GlcN6P (glucosamine-6-phosphate [3]) [s⁻¹] | self-cleavage kobs at 10000 uM GlcN6P (glucosamine-6-phosphate [4]) [s⁻¹] |
| --- | --- | --- | --- | --- |
| AUAAAAGCGCCUGAACUACAGAAAUGUAGUUGACGAGGAGGAGGUUUAUCGACUUUUCGGCGGAUGUCUCCAAA | 0.00253 ± 0.0006 | – | – | – |
| AUAAAAGCGCCUGAACUACAGAAAUGUAGUUGAGUAGGGGGAGGUUUAUCGAAUUUUCGGCGAAUGCCUCCAAA | < 1e-05 | < 1e-05 | < 1e-05 | – |
| AUAAAAGCGCCUGAACUACAGAAAUGUAGUUGAUGUGGAGGAGGUUUAUCGAAUGUUCGGCGGAUGCCUCCAAA | < 1e-05 | < 1e-05 | – | < 1e-05 |
| AUAAAAGCGCCUGAACUACAGAAAUGUAGUUGACGAGGAGGAGGUUUAUUGAAUUUUCGGCGGAUGCCUCCAAA | 4.86e-05 ± 1.1e-05 | – | 9.52e-05 ± 1.7e-05 | 0.00036 ± 4.5e-05 |
| AUAAAAGCGCCUGAACUACAGAAAUGUAGUUGACGAGGAGGAGGUUUAUCGAAUUUUCGGCGGAUGCAUCCAAA | 7.24e-05 ± 3.4e-05 | – | 2.89e-05 ± 1.2e-05 | – |
| AUAAAAGCGCCUGAACUACAGAAAUGUAGUUGACGAGGAGGAGGUUUAUCGAAUUUUCGGCGGAUGCGUCCAAA | 8.22e-05 ± 7.3e-06 | 5.38e-05 ± 6.4e-06 | 0.00016 ± 1.2e-05 | 0.000186 ± 1.6e-05 |
| AUAAAAGCGCCUGAACUACAGAAAUGUACUUGACGAGGAGGAGGUUUAUCAAAUUUUCGUCGGAUGCAUCCAAA | < 1e-05 | – | – | – |
| AUAAAAGCGCCUGAACUACAGAAAUGUAUUUGACGCGGAGGAGGUUUAUCGAAUUUUCGGCGGAUGCCUCCAAA | < 1e-05 | < 1e-05 | < 1e-05 | – |
| AUAAAAGCGCCUGAACUACAGAAAUGUAUUUGACGAGGAGGAGGUUUAUCGAAUUUUCUGCGGAUGCGUACAAA | 4.93e-05 ± 2.3e-05 | – | – | – |
| AUAAAAGCGCCUGAACUACAGAAAUGUAGUUAACGAUGAGGAGGUUUAUCGAAUUUUCGGCGGAUGCCUCCAAA | < 1e-05 | – | < 1e-05 | – |
| AUAAAAGCGCCUGAACUACAGAAAUGUAGUUCACCAGGAGGUGGUUUAUCGAAUUUUCGGCGGAUGCCUCCAAA | < 1e-05 | – | – | – |
| AUAAAAGCGCCUGAACUACAGAAAUGUAGUUGACGAGGAGCAGGUUUAUCCAAUUUUCGGCGGAUGCCUCCAAA | < 1e-05 | – | – | – |
| AUAAAAGCGCCUGAACUACAGAAAUGUAGUUGACGAGGAGGAAGUUUAUCAAAUUUUCGGCGGAUGCCUCCAAA | < 1e-05 | < 1e-05 | – | < 1e-05 |
| AUAAAAGCGCCUGAACUACAGAAAUGUAGUUGACGAGGAGGAGAUUUAUCGAAUUUUCGGCGGAGGUCUCCAAA | 0.000969 ± 0.00016 | 0.000241 ± 6.5e-05 | – | – |
| AUAAAAGCGCCUGAACUACAGAAAUGUAGUUGACGAGGAGGAGGUUUAUCUAAUUUUCGGCGGAUGCCUCCAAA | < 1e-05 | < 1e-05 | < 1e-05 | < 1e-05 |
| AUAAAAGCGCCUGAACUACAGAAAUGUAGUUGACGAGGAGGAGGUUUAUCGAAUUUUCCGCGGAUGCCACCAAA | 0.00122 ± 0.00048 | – | – | – |
| AUAAAAGCGCCUGAACUACAGAAAUGUAGUUGACGAGGAGGAGGUUUAUCGAAUUUUCGUCGGACGCCUCCAAA | < 1e-05 | < 1e-05 | < 1e-05 | – |
| AUAAAAGCGCCUGAACUACAGAAAUGUAGUUGACGAGGAGGAGGUUUAUCGAAUUUUCGGCGCAUGCCUCCAAA | < 1e-05 | < 1e-05 | – | < 1e-05 |
| AUAAAAGCGCCUGAACUACAGAAAUGUAGAUGACGAGUAGGAGGUUUAUCGAAUUUUCGGCGGAUGCCUCCAAA | < 1e-05 | – | – | – |

| Variant | self-cleavage kobs at 640 uM GlcN6P (glucosamine-6-phosphate [1]) [s⁻¹] | self-cleavage kobs at 160 uM GlcN6P (glucosamine-6-phosphate [2]) [s⁻¹] | self-cleavage kobs at 2500 uM GlcN6P (glucosamine-6-phosphate [3]) [s⁻¹] | self-cleavage kobs at 10000 uM GlcN6P (glucosamine-6-phosphate [4]) [s⁻¹] |
| --- | --- | --- | --- | --- |
| AUAAAAGCGCCUGAACUACAGAAAUGUAGUUGACGAGGAGGAGGUUGAUCGUAUUUUCGGUGGAUGCCUCCAAA | < 1e-05 | – | – | – |
| AUAAAAGCGCCAAGACUACAGAAAUGUAGAUGAAGAGGAGGAGGUUUAUCGAAUUUUCGGCGGAUGCCUCCAAA | < 1e-05 | – | < 1e-05 | – |
| AUAAAAGCGCCAAAGCUACAGAAAUGUAGUUGACUAGGAGGAGGUUUAUCGAAUUUUCGGCGGAUGCCUCCAAA | < 1e-05 | – | < 1e-05 | – |
| AUAAAAGCGCCAAAGCUACAGAAAUGUAGUUGACGAGGAGGAGGUUUAUCGAAUUUUCCGCGGAUACCUCCAAA | < 1e-05 | < 1e-05 | – | – |
| AUAAAAGCGCCAAAACUACAGAAAUGUAGUUGACGUGGAGAAGGUUUAUCGAAUUUUCAUCGGAGGCCUCCAAA | < 1e-05 | < 1e-05 | – | – |
| AUAAAAGCGCCAAAACUACAGAAAUGUAGUUGACGAGGGGGAGGUUUUUCGAAUUUUCUGCGGAUGCGUCCAAA | < 1e-05 | – | – | – |
| AUAAAAGCGCCAAAACUACAGAAAUGUAGUUGACGAGGAGGAGGUUUAUCGCAUUUUGGGCGGAUGCCGCCAAA | 4.44e-05 ± 2e-05 | – | – | – |
| AUAAAAGCGCCAAAAAUACAGAAAUGUAGUUGACGAGGAGGAGGUUUAUCGAAUUUUCGGCGGAUGCGUCCAAA | 7.67e-05 ± 3.7e-05 | – | – | – |
| AUAAAAGCGCCAAAAGUACAGAAAUGUAGUUGACGAGGAGGAGGUUUAUCGAAUUUUCGACGGAUGCCUCCAAA | < 1e-05 | < 1e-05 | – | – |
| AUAAAAGCGCCAAAAUUACAGAAAUGUAGUUGACGAGGAGGAGGUUUAUCGAAUUUUCGGCGGAUGCCUCCAAA | 0.000172 ± 2.2e-05 | 4.29e-05 ± 1.2e-05 | 0.000459 ± 5.5e-05 | – |
| AUAAAAGCGCCAAAAUUACAGAAAUGUAGUUGACGAGGAGGAGGUUUUUCGAAUAUUCGGCGGAUGCCUCCAAA | < 1e-05 | – | – | – |
| AUAAAAGCGCCAAAACUACAGAAAUGUAGUUGACGAGGAGGAGGUUUAUCGAAUUUUCGGCGGAUGACUCCAAA | 2.62e-05 ± 8.7e-06 | – | 0.000133 ± 2.4e-05 | 0.000181 ± 2.5e-05 |
| AUAAAAGCGCCAAAACUACAGAAAUGUAGUUGACGAGGAGGAGGUUUAUCGAAUUUUCGGCGGAUGCGUCGAAA | 0.000118 ± 5e-05 | – | – | – |
| AUAAAAGCGCCAAAACUACAGAAAUGUACUUGACGAGGAGGAGGUUUAUCGAAUUUUCGGCGGAUUCCUCCAAA | < 1e-05 | – | – | – |
| AUAAAAGCGCCAAAACUACAGAAAUGUAUUUGACGAGGAGGAGGUUUGUCGAAUUUUCGGCGGAUGCCUCCAAA | < 1e-05 | – | < 1e-05 | – |
| AUAAAAGCGCCAAAACUACAGAAAUGUAUUUGACGAGACGGAGGUUUAUCGAAUUUUCGGCGGAUGCCUCCAAA | < 1e-05 | – | – | – |
| AUAAAAGCGCCAAAACUACAGAAAUGUAUUUGACGAGGAGGAGGUUUAUCGAAUUUUCGGCAGAUGCCUUCAAA | < 1e-05 | – | – | – |
| AUAAAAGCGCCAAAACUACAGAAAUGUAGUUGACAAGGAGUAGGUUUAUCGAAUUUUCGGCGGAUGCUUCCAAA | < 1e-05 | < 1e-05 | < 1e-05 | – |
| AUAAAAGCGCCAAAACUACAGAAAUGUAGUUGACGAGCAGGAGGUUUAUCGAAUUUUCGGCGGAUGCCUCCAAA | < 1e-05 | < 1e-05 | < 1e-05 | < 1e-05 |
